From the supplement of paper PMC7826260
Some of the results follow. The data describe in vitro nicking of single-stranded DNA by Rep domains (1 h at 37 °C, 3 µM enzyme); the outer parts of the 90-letter strands are left off. A value is the log2 ratio of uncut reads to the pool without enzyme; uncut sequences lie near 0, cut ones below; no hit call is given. Counts are relative to all reads; uncut strands gain when others are lost, and binding without cutting may add a little.

Tests used:
Test in all cases: uncleaved DNA left, log2 of reads against the no-enzyme library (log2 ratio); higher = less cleavage (more negative = more Rep cleavage of the k-mer); sequences stand for … in CTCGTCCG…ACCGGAGA
[1] = system: T1, Rep nickase domain of Muscovy duck circovirus
T1 sequence (Rep 1-111, printed without the tag): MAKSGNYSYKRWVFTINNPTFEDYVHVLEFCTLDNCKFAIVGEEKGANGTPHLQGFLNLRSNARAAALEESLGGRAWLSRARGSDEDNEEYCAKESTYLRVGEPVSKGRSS
Protocol: (§1)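 A pool of 90-nt single-stranded DNAs with seven random bases just before the constant AC of the nick site (name = the seven bases) was cut by 3 µM recombinant His6-SUMO-tagged Rep nickase domain (300 nM DNA, 50 mM HEPES pH 8.0, 50 mM NaCl, 1 mM MnCl2, 1 h, 37 °C, three replicates). Uncut DNA was amplified and sequenced.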

[2] = system: T2, Rep nickase domain of banana bunchy top virus
T2 sequence (Rep 1-94, printed without the tag): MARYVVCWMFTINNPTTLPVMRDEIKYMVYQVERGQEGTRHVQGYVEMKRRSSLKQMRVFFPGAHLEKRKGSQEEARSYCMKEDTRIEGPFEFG
Protocol: as §1

[3] = system: T3, Rep nickase domain of cabbage leaf curl virus
T3 sequence (Rep 1-116, printed without the tag): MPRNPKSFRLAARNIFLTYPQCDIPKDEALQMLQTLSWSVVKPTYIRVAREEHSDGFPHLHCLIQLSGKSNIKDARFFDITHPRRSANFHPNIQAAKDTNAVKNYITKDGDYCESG
Protocol: as §1

[4] = system: T4, Rep nickase domain of chickpea chlorotic dwarf virus
T4 sequence (Rep 1-124, printed without the tag): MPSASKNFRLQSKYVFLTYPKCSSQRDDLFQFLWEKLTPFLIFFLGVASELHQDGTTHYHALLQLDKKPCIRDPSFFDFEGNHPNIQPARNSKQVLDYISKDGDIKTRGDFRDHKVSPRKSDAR
Protocol: as §1

[5] = system: T5, Rep nickase domain of faba bean necrotic yellows virus
T5 sequence (Rep 1-98, printed without the tag): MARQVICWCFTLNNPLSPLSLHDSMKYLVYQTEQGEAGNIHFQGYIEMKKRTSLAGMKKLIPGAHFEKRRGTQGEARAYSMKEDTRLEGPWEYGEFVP
Protocol: as §1

[6] = system: T6, Rep nickase domain of maize striate mosaic virus
T6 sequence (Rep 1-117, printed without the tag): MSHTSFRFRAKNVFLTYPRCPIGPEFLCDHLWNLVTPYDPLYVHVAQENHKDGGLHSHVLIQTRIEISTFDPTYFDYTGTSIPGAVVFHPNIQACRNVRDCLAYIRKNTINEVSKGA
Protocol: as §1

[7] = system: T7, Rep nickase domain of porcine circovirus 2
T7 sequence (Rep 2-116, printed without the tag): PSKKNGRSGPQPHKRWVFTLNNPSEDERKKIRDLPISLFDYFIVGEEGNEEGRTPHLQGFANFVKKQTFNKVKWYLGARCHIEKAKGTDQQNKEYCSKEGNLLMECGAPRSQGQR
Protocol: as §1

[8] = system: T8, Rep nickase domain of tomato golden mosaic virus
T8 sequence (Rep 1-124, printed without the tag): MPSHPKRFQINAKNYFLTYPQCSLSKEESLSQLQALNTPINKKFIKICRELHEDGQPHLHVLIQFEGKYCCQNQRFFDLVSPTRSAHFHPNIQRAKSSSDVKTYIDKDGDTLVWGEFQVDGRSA
Protocol: as §1

[9] = system: T9, Rep nickase domain of tomato yellow leaf curl virus
T9 sequence (Rep 1-136, printed without the tag): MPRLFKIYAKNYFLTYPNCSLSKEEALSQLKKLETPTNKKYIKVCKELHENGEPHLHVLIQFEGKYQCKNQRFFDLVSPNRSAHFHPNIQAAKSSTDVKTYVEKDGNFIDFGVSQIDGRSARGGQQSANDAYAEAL
Protocol: as §1

[10] = system: T10, Rep nickase domain of wheat dwarf virus
T10 sequence (Rep 1-137, printed without the tag): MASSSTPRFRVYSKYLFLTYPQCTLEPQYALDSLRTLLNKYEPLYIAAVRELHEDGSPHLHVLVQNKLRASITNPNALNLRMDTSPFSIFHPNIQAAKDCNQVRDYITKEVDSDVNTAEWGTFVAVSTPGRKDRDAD
Protocol: as §1

Row | Sequence | uncleaved DNA left (log2) [1] | uncleaved DNA left (log2) [2] | uncleaved DNA left (log2) [3] | uncleaved DNA left (log2) [4] | uncleaved DNA left (log2) [5] | uncleaved DNA left (log2) [6] | uncleaved DNA left (log2) [7] | uncleaved DNA left (log2) [8] | uncleaved DNA left (log2) [9] | uncleaved DNA left (log2) [10]
1 | ACGCGAG | 0.0841 | -0.0117 | -0.232 | 0.0576 | -0.0605 | -0.6 | 0.0436 | -0.00776 | 0.00596 | 0.00447
2 | CGACCCT | -0.0463 | -0.0579 | 0.215 | 0.16 | 0.00935 | 0.562 | -0.118 | -0.226 | -0.0358 | -0.0246
3 | AGTCTTA | -0.0786 | 0.047 | 0.155 | -0.516 | -0.142 | -0.00623 | -2.01 | 0.112 | 0.11 | 0.0527
4 | ACTGCTG | 0.0187 | 0.0452 | 0.0357 | 0.802 | 0.0987 | 0.297 | 0.126 | 0.172 | 0.057 | -0.0028
5 | GCACTTG | -0.0698 | -0.00513 | -0.408 | -0.47 | -0.00205 | -0.773 | 0.0632 | -0.189 | -0.0557 | -0.182
6 | ACTCCCT | -0.103 | -0.0507 | -0.18 | -1.83 | 0.0604 | -0.343 | -0.52 | 0.0852 | -0.102 | 0.0314
7 | GATCCCT | -0.105 | -0.00298 | 0.114 | -1.26 | -0.127 | 0.849 | -0.444 | -0.096 | -0.0293 | 0.0754
8 | CTGGAGT | 0.045 | -0.0228 | -0.109 | -0.0194 | -0.0961 | -0.314 | 0.0617 | 0.0339 | -0.0429 | -0.116
9 | ATCAGAC | -0.0563 | -0.0902 | 0.0403 | 0.239 | -0.0274 | -0.564 | 0.158 | 0.00361 | -0.101 | -0.105
10 | CGAGTAT | 0.322 | 0.14 | 0.325 | 0.197 | 0.125 | 0.677 | -0.00279 | 0.284 | 0.232 | 0.213
11 | CCCAGCT | -0.152 | -0.048 | -0.267 | -0.911 | -0.134 | -0.934 | -0.059 | -0.108 | -0.142 | -0.0189
12 | TTCGCCC | -0.167 | -0.181 | -0.0436 | -0.386 | -0.197 | -0.634 | -0.237 | -0.152 | -0.257 | -0.221
13 | AAGCTCG | 0.139 | 0.0493 | -0.227 | 0.0134 | 0.0145 | -0.24 | 0.222 | 0.134 | -0.075 | 0.14
14 | CACCGTG | -0.0278 | 0.00627 | -0.654 | -0.715 | -0.104 | -1.08 | -0.0136 | -0.0161 | -0.07 | -0.154
15 | CCACCTT | -0.0967 | -0.0565 | -0.244 | -2.34 | -0.0476 | -0.404 | -0.499 | -0.0436 | 0.0717 | -0.125
16 | AACAAGA | -0.0326 | -0.0406 | -0.0766 | -0.363 | -0.0825 | -0.949 | 0.166 | -0.0276 | -0.0708 | -0.078
17 | TCATCCT | -1.32 | -0.12 | -0.504 | -2.95 | -0.0899 | -0.629 | -1.32 | -0.189 | -0.0792 | -0.113
18 | TCCTCCT | -0.236 | -0.094 | 0.0777 | -1.66 | 0.152 | 0.191 | -1.38 | -0.128 | -0.0866 | -0.0751
19 | ATTTGCG | -0.171 | -0.107 | 0.335 | 1.41 | -0.0488 | 1.87 | 0.0233 | -0.137 | -0.248 | -0.107
20 | CTGGTTT | 0.02 | -0.175 | 0.203 | -0.963 | 0.0708 | 0.419 | -0.0133 | -0.0328 | -0.0124 | -0.0518
21 | GTCCGAC | 0.0798 | 0.0745 | 0.302 | 0.829 | -0.00049 | 1.03 | 0.0853 | 0.012 | 0.0338 | 0.0631
22 | TGTGTCT | -0.0311 | -0.0496 | 0.134 | -0.538 | -0.0791 | 0.287 | -0.281 | -0.0855 | 0.0326 | -0.0486
23 | TCGTGAA | 0.177 | 0.0193 | 0.152 | 0.186 | -0.0359 | 0.282 | -0.35 | 0.195 | 0.0569 | 0.0818
24 | ACGCGCG | 0.00332 | 0.0211 | -0.26 | 1.22 | -0.132 | 0.811 | 0.177 | 0.000832 | -0.00639 | -0.0378
25 | GTGGAGT | 0.199 | 0.207 | 0.776 | 1.45 | 0.0894 | 1.77 | 0.33 | 0.206 | 0.0856 | 0.173
26 | CGCGCTT | -0.0634 | -0.0842 | -0.0849 | -0.624 | -0.138 | -0.187 | -0.218 | -0.0787 | -0.0791 | -0.182
27 | CTGGTAC | 0.0973 | 0.0474 | 0.113 | 0.0274 | 0.0471 | 0.0617 | -0.105 | -0.0268 | 0.0971 | 0.0253
28 | GCTGGAT | -0.0644 | -0.0938 | 0.236 | 1.32 | -0.13 | 1.72 | -0.0301 | -0.0301 | -0.263 | -0.151
29 | ACCATTA | -0.0777 | 0.0137 | -0.481 | -1.22 | -0.103 | -0.992 | -0.00817 | 0.0282 | -0.125 | -0.108
30 | GGCAGTT | 0.125 | 0.0612 | 0.695 | 1.38 | 0.0848 | 1.96 | 0.112 | -0.0529 | -0.0225 | 0.157
